{"source": "the supplement of paper PMC11417369", "note": "This is one part of the list.", "data": [{"system": "PF3D7_0420300 AP2 domain 1 (GST-tagged)", "assay": "gcPBM binding intensity (ln(normalized median fluorescence intensity)); higher = stronger DNA binding", "procedure,_shortened": "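GST-tagged P. falciparum DNA-binding domains produced in E. coli were incubated for 1 h on an Agilent 4 × 180k array of primer-extended double-stranded 36-bp intergenic genomic probes with negative controls. Binding intensity is the highest Masliner-normalised natural-log median intensity across replicate spots of either probe orientation, with bound protein detected by Alexa488 anti-GST antibody at 488 nm.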", "values": [{"sequence": "GTATATATGTATGTATGTACGTATATAGTTATGTAT [XGTACX_site6769]", "gcPBM binding intensity (ln)": 9.34}, {"sequence": "ATAAAAAAATTAAATACATGCACATATACACATACA [TGCATGCA_site129]", "gcPBM binding intensity (ln)": 9.59}, {"sequence": "TACTGAAATAATTATTTAAACGTTTTTATATGTATT [CACACA_negctrl_site487]", "gcPBM binding intensity (ln)": 9.34}, {"sequence": "TTTATTTTTTCCAAGTCACACATGTTTTGATATATT [CACACA_site4946]", "gcPBM binding intensity (ln)": 9.31}, {"sequence": "ACAACTCGGAAGGTTTGTACTTAAAGTATAATTAAG [XGTACX_site737]", "gcPBM binding intensity (ln)": 8.99}, {"sequence": "TTTGTAAAACTATATTGTACTTTTATATATCTACAA [XGTACX_site5507]", "gcPBM binding intensity (ln)": 9.15}, {"sequence": "AATTGGAAGAAAAAAAAGGAAGGAAAGTTATTACAT [GTGCAC_negctrl_site74]", "gcPBM binding intensity (ln)": 9.38}, {"sequence": "TATATACATGCATATACACACATATATTTATTTATA [CACACA_site6327]", "gcPBM binding intensity (ln)": 9.55}, {"sequence": "TCATACATGGTGTGTTTGCACTTGACCTATATTCAT", "gcPBM binding intensity (ln)": 9.26}, {"sequence": "TCTTGAATAACAAAAAAATGTGCCAACAAAATAAAT [XGTACX_negctrl_site172]", "gcPBM binding intensity (ln)": 9.5}, {"sequence": "TATTTTAACATTAGGTGTACATACAAAAATAAAAAT [XGTACX_site8577]", "gcPBM binding intensity (ln)": 9.3}, {"sequence": "AATATTTGTTAAAGAGGTACACCATTTGGTAGGGAA [XGTACX_site2165]", "gcPBM binding intensity (ln)": 9.19}, {"sequence": "ATAATATGAAAACACACACACACACTAGAAAAAAAA [CACACA_site5153]", "gcPBM binding intensity (ln)": 10.3}, {"sequence": "AAAAAAAAAAATATAACACACAACAAAAAAATATAT [CACACA_site1753]", "gcPBM binding intensity (ln)": 9.89}, {"sequence": "ATTATTTAAATGGATGCACACATGCATTAAATAAAA [CACACA_site5831]", "gcPBM binding intensity (ln)": 9.11}, {"sequence": "TTTTTCTTTTTACATACACACAAAAAAATAAAATAT [CACACA_site581]", "gcPBM binding intensity (ln)": 9.23}, {"sequence": "TTTTTCAAATTTAATACACACACAAGTATATATTTA [CACACA_site9307]", "gcPBM binding intensity (ln)": 9.49}, {"sequence": "AAATTAATATTATGTGCATGCACAAAGAGGAACGAC [TGCATGCA_site754]", "gcPBM binding intensity (ln)": 9.95}, {"sequence": "TGGTAATTTCTTTGATAAAAATTAATATGTATAAAT [XGTACX_negctrl_site152]", "gcPBM binding intensity (ln)": 8.79}, {"sequence": "ACTTACACAGTTGATGGTACACTTTTATGATTTTGT [XGTACX_site3205]", "gcPBM binding intensity (ln)": 9.56}, {"sequence": "TTTTTTAACCTTTTATGTACACAATATTTAACATTT [XGTACX_site1170]", "gcPBM binding intensity (ln)": 9.39}, {"sequence": "TATATATAAAGGTGTACACATATATATATATCTGTA [CACACA_site5311]", "gcPBM binding intensity (ln)": 9.28}, {"sequence": "ATTTCATATTATGTAACACACAACAAGATAATCAAA [CACACA_site1960]", "gcPBM binding intensity (ln)": 9.47}, {"sequence": "ACAAGTTAAAATATTACACACATATAAATATATATA [CACACA_site3132]", "gcPBM binding intensity (ln)": 9.41}, {"sequence": "ATAAGGTTACAACAAACACACAAAGGAATATACTCA [CACACA_site6108]", "gcPBM binding intensity (ln)": 9.68}, {"sequence": "TTTTATTTACACAGTGGTACTATTAAAAATTAATGA [XGTACX_site6737]", "gcPBM binding intensity (ln)": 9}, {"sequence": "AAAAAACAAAAAATTACACACATATATAAATATATT [CACACA_site2317]", "gcPBM binding intensity (ln)": 9.54}, {"sequence": "TAATAAAGGTGTAATACACACTATAAAAAGGAATAT [CACACA_site4756]", "gcPBM binding intensity (ln)": 9.61}, {"sequence": "ATGTGTATATATTATTGTACATATATATATATATAT [XGTACX_site4627]", "gcPBM binding intensity (ln)": 9.31}, {"sequence": "AAAAAAAAAAAAAAAAGTACTAATTGAATATTAAAC [XGTACX_site3383]", "gcPBM binding intensity (ln)": 9.24}, {"sequence": "ACATATATATAAATATATATATATATATATATATAT [CACACA_negctrl_site874]", "gcPBM binding intensity (ln)": 9}, {"sequence": "ATGGTAAGTATTTTATGTACATATATATTTATATAA [XGTACX_site4003]", "gcPBM binding intensity (ln)": 9.24}, {"sequence": "TACACCCATAGACACACACACACGCATAAAAAAAAA [CACACA_site8428]", "gcPBM binding intensity (ln)": 9.93}, {"sequence": "TCTATTAATTAATATACACACATTAGATATAAATAT [CACACA_site7241]", "gcPBM binding intensity (ln)": 9.38}, {"sequence": "TAATTAAATAAAAAAACACACACATATATACATATA [CACACA_site9141]", "gcPBM binding intensity (ln)": 9.95}, {"sequence": "ACACATATATAAATATGTACATATATATATATACAT [XGTACX_site1595]", "gcPBM binding intensity (ln)": 9.33}, {"sequence": "TATCATGTCTGTATTTCACACACGGATAATCATTTA [CACACA_site920]", "gcPBM binding intensity (ln)": 9.48}, {"sequence": "ATGTATATAATAAGAACACACATATATTTAATTTAA [CACACA_site2941]", "gcPBM binding intensity (ln)": 9.47}, {"sequence": "TATTCTATATTTCTATTTAGAAAACATCCCAGTGTG [GTGCAC_negctrl_site184]", "gcPBM binding intensity (ln)": 8.87}, {"sequence": "TGTTATATTTAATATAGTACATATTATTTTATATAT [XGTACX_site70]", "gcPBM binding intensity (ln)": 9.12}, {"sequence": "AAAAATAAAATATATACATGCATATACATATTATAT [TGCATGCA_site668]", "gcPBM binding intensity (ln)": 9.29}, {"sequence": "AGAAAATTAAAAAGAACACACAAATATATATAGAAT [CACACA_site3592]", "gcPBM binding intensity (ln)": 10}, {"sequence": "ATTTATATGCACCATTGTACGTTTTATAAAGTTTGG [XGTACX_site3755]", "gcPBM binding intensity (ln)": 9.35}, {"sequence": "ATACATATATACATACGTACTTATATACATATGTGC [XGTACX_site5268]", "gcPBM binding intensity (ln)": 9.2}]}]}
